Data: the BET-seq Pho4 binding data (Le et al. 2018)
The other results are listed elsewhere or left out. The energies were worked out here from pooled read counts, against the library average; single values are noisy.

biological target: T1, Pho4 (S. cerevisiae) (UniProt P07270); test: relative binding free energy (BET-seq); higher = weaker binding; conditions: reference: library average
T1 sequence: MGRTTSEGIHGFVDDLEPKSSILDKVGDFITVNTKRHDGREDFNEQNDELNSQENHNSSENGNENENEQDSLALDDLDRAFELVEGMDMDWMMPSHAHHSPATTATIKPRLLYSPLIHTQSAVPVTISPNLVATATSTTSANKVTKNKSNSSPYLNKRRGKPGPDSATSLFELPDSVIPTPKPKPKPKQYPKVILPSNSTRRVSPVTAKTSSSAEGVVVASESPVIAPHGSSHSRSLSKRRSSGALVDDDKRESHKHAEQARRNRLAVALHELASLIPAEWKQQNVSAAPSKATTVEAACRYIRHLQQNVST

Relative binding free energy, -0.28 kcal/mol:
TCGCGCACGTGGAGGG

Relative binding free energy, 0.07 kcal/mol:
TTTATCACGTGGCAAG
TGACTCACGTGGGGTG
CTAGTCACGTGTTGTA
TTGTACACGTGTTGTC
TGGAGCACGTGTAAGC
TTCAACACGTGTTAGT

Relative binding free energy, 0.05 kcal/mol:
GGGTACACGTGGTTAA
GGCGACACGTGGTGCG
TGTTACACGTGCGGAT
TGTGTCACGTGGTGGT
GAGGTCACGTGGCTTG

Relative binding free energy, 0.43 kcal/mol:
GATTCCACGTGATGTG
AGATTCACGTGAGCTG

Relative binding free energy, 0.15 kcal/mol:
TGGTTCACGTGTCCTT
CACGTCACGTGAGGGG
GGGATCACGTGGTGCA
TACTTCACGTGTTTGT
TGCTTCACGTGGGCTT
AAGATCACGTGGCGGT

Relative binding free energy, -0.01 kcal/mol:
CATTGCACGTGGGTGT
TGGGACACGTGGGCAA
ATCTGCACGTGGTGGC
TAGGACACGTGGTTTG
TTAAACACGTGCGGTT
GATACCACGTGTGTGT
ATAGACACGTGTTTTA

Relative binding free energy, 0.31 kcal/mol:
AGGTTCACGTGACGTG
GTTATCACGTGGCTTT
TAATTCACGTGGTACA
TGGTTCACGTGTAGGG
AGTTCCACGTGATTGG
TGTTTCACGTGGTGCC
TTTTTCACGTGAGAAT

Relative binding free energy, -0.02 kcal/mol:
ATTGGCACGTGATACG
CAGGACACGTGGGGCG
GCATGCACGTGTTGTG
TTGGCCACGTGTTGCT
TCAGTCACGTGGTTGT
GTTCCCACGTGGTAGG
AGTGGCACGTGTTATA
TAGTCCACGTGGGTTA

Relative binding free energy, -0.26 kcal/mol:
AGGGGCACGTGCGTAA
AGGGGCACGTGTGTTA

Relative binding free energy, 0.11 kcal/mol:
TATATCACGTGTTAGG
AACGTCACGTGTCGGG
CTTGTCACGTGAAGTG
AGTTGCACGTGTGAAT

Relative binding free energy, -0.2 kcal/mol:
GCGGGCACGTGGGTGC

Relative binding free energy, 0.17 kcal/mol:
GCGTTCACGTGATTTG
TACGTCACGTGCAGTT
CAGTGCACGTGAGCGG
TTAAGCACGTGAAGTA

Relative binding free energy, 0.41 kcal/mol:
TAATTCACGTGAGAGT

Relative binding free energy, 0.25 kcal/mol:
GGGGACACGTGAGTGT
GGGCTCACGTGCTTGT

Relative binding free energy, 0.49 kcal/mol:
TTAATCACGTGAACGT

Relative binding free energy, -0.07 kcal/mol:
GGAGGCACGTGGTGTT

Relative binding free energy, -0.27 kcal/mol:
TGGGCCACGTGGTGCT

Relative binding free energy, 0.24 kcal/mol:
CGAGTCACGTGATGGG
TTTGTCACGTGACGGC
GTTTACACGTGGTGAG

Relative binding free energy, 0.09 kcal/mol:
TCTCGCACGTGATGGT
AGTTGCACGTGATAAT
TTGATCACGTGTCTTA
TACGGCACGTGATGTT
TATAGCACGTGTATCG

Relative binding free energy, -0.15 kcal/mol:
TGGAGCACGTGGAGGC
AGTGGCACGTGCAGAT

Relative binding free energy, -0.03 kcal/mol:
AGGTGCACGTGTGTTG
TGGAACACGTGGTGGA
GCGGACACGTGGGGTG
GTATGCACGTGGTTCG

Relative binding free energy, -0.09 kcal/mol:
AGCGTCACGTGGTGCG
ATGTGCACGTGCATGA
AGAGGCACGTGGAAGG
AGGCACACGTGGGTCG

Relative binding free energy, -0.06 kcal/mol:
CAGGACACGTGTTGTG
GTCTACACGTGGGGCG
ATATACACGTGTGTTT
GGTTCCACGTGGTCTG
ACTGACACGTGGAGGG
GCATGCACGTGGGGGC
GTGGGCACGTGTGGGA

Relative binding free energy, -0.19 kcal/mol:
TTCGGCACGTGCGGTA
CGTGACACGTGGTGGC
TGTGCCACGTGGGGCT

Relative binding free energy, 0.06 kcal/mol:
ATGTACACGTGATGCG
ACGGCCACGTGAGGGT
GAGTGCACGTGGTAGT
GGTTCCACGTGTGTTG
GTTACCACGTGTTGAT
CTGTGCACGTGTTCGG
GGTAGCACGTGTGGTA
GTGCACACGTGTGTTA

Relative binding free energy, 0.2 kcal/mol:
TATTTCACGTGATCAT
TTATTCACGTGTGTAC
TAGGTCACGTGTTAAA
GGCATCACGTGTCGGT
GTTGACACGTGAATAT
TGTTTCACGTGCAGTT

Relative binding free energy, 0.22 kcal/mol:
TCTCTCACGTGTAGTT
TTTGGCACGTGAGGTG
GGGATCACGTGGTGAT
GGGGCCACGTGAGTTA

Relative binding free energy, 0.37 kcal/mol:
GGTTTCACGTGTCGCA
AGTTTCACGTGTGGGC

Relative binding free energy, -0.08 kcal/mol:
TATTCCACGTGGTAGG
GTGGCCACGTGGGTGA
GAGTGCACGTGGGTGA

Relative binding free energy, 0.19 kcal/mol:
TTTATCACGTGTAAAT

Relative binding free energy, -0.13 kcal/mol:
GTGGCCACGTGCTGTT
TTGAGCACGTGGGGAG
AGGGACACGTGGCATG

Relative binding free energy, 0.13 kcal/mol:
GGCGTCACGTGGCGTA
TGACTCACGTGATTGT
AAGTTCACGTGGTGCG

Relative binding free energy, 0 kcal/mol:
GTTGCCACGTGCAGGT
CAGGTCACGTGGGCGG
TATAGCACGTGTTAGT
GAAGGCACGTGTGGTC
TGAGGCACGTGTACAG

Relative binding free energy, 0.01 kcal/mol:
CGGGTCACGTGGTGTG
GATGGCACGTGCAAGG
TATATCACGTGTTGCT
GTCGTCACGTGGTAAG
AAATGCACGTGTGGCG
TAAGACACGTGGGAGA
TGATGCACGTGTTAAA

Relative binding free energy, 0.29 kcal/mol:
GATTCCACGTGAAGGG

Relative binding free energy, -0.31 kcal/mol:
AGGGGCACGTGGGCTG

Relative binding free energy, 0.18 kcal/mol:
GGTAGCACGTGAGCTG

Relative binding free energy, -0.16 kcal/mol:
ATGGCCACGTGGCTTG
ATAGGCACGTGGAGTT
CGCGGCACGTGTGGGT
TGGCGCACGTGGTGCG
TGGACCACGTGGGGCG

Relative binding free energy, -0.04 kcal/mol:
GTTAGCACGTGGGAGC
TATGGCACGTGTGGTG
GTATGCACGTGGTTTA
TTAGACACGTGTTATA
AGTGTCACGTGGCCTG
ATAAGCACGTGTGGGG

Relative binding free energy, -0.12 kcal/mol:
ATGGGCACGTGGGAGA
CGGGCCACGTGTGTGG
AGGAGCACGTGGTGCT
GATGGCACGTGGGGTG

Relative binding free energy, 0.32 kcal/mol:
TTTTACACGTGATATT
GTAGTCACGTGAGGTT
CAGCTCACGTGTAGGG

Relative binding free energy, 0.08 kcal/mol:
AGTTGCACGTGAAGGA
GAAATCACGTGGCGTG
GGAGTCACGTGGGAAA
GCAGTCACGTGTGTGG

Relative binding free energy, -0.36 kcal/mol:
TGTAGCACGTGGGCGA

Relative binding free energy, 0.16 kcal/mol:
TGCGTCACGTGTGGTT
AGTTGCACGTGCAGTG
TCATGCACGTGATTGG

Relative binding free energy, -0.18 kcal/mol:
TTGAGCACGTGGGCTT
CGGGGCACGTGTTTTG
CGTAGCACGTGGGAGT
CGTGGCACGTGGCTTG

Relative binding free energy, 0.03 kcal/mol:
TCCGACACGTGGGTTG
GATAGCACGTGTGTTA
GGGGTCACGTGCGCGT
AAGGACACGTGTTGGT
TGCGGCACGTGCAGGA
AAACGCACGTGTGGTT
ATTATCACGTGGGCGC
GTTGGCACGTGATAAA
TTAATCACGTGGTCTA

Relative binding free energy, 0.14 kcal/mol:
AATTTCACGTGCTTGT
CGGCTCACGTGTGGGC

Relative binding free energy, -0.11 kcal/mol:
CTTGGCACGTGTTGGC
CTTGGCACGTGGTGCT

Relative binding free energy, -0.1 kcal/mol:
AGAGACACGTGGTGGG
GGTAGCACGTGGTACG
CGCTGCACGTGGAGGG
AGTGTCACGTGCTTAG
CAAAGCACGTGGTGTG
GGCGGCACGTGTTAGT
TATCGCACGTGGTATT

Relative binding free energy, 0.38 kcal/mol:
TCGGTCACGTGAATTT

Relative binding free energy, 0.23 kcal/mol:
TGTCGCACGTGAAGGG
GGATTCACGTGCCGGG
ATTCTCACGTGGTGGA
CGGGTCACGTGTACTT
TAATTCACGTGTTTTT
TTCGTCACGTGATGAT

Relative binding free energy, 0.48 kcal/mol:
GACGTCACGTGAGAGG

Relative binding free energy, 0.45 kcal/mol:
TGTATCACGTGAGAAA

Relative binding free energy, 0.39 kcal/mol:
TCGGACACGTGTAGAA
TGGTTCACGTGAAGGG

Relative binding free energy, 0.1 kcal/mol:
GGGCGCACGTGTTTTG
ACTGTCACGTGTTTTT
TTTTACACGTGGTAAT

Relative binding free energy, 0.28 kcal/mol:
GTTTTCACGTGCGTAT
TGGATCACGTGTGATC
GTGGTCACGTGAAATA

Relative binding free energy, 0.04 kcal/mol:
TTAACCACGTGGATGG
AGTGTCACGTGCGGTC
GGAGGCACGTGTATGT
GTTAGCACGTGTATTT
TAATACACGTGTATGT
GATTCCACGTGGGTAT
TTGATCACGTGCTTAG
TTAGGCACGTGTAAAA

Relative binding free energy, 0.02 kcal/mol:
GGGACCACGTGTTGGA
TACGACACGTGCGGGG
TAGGTCACGTGCAGTG
GTGAACACGTGGCGTA
GTAGGCACGTGTTATC

Relative binding free energy, 0.3 kcal/mol:
ATCATCACGTGATGGT
TTGCTCACGTGAGCGT

Relative binding free energy, -0.33 kcal/mol:
GTACGCACGTGGGTAG

Relative binding free energy, -0.3 kcal/mol:
CTGGGCACGTGGGTCG

Relative binding free energy, 0.21 kcal/mol:
GGAATCACGTGAGGGC

Relative binding free energy, -0.14 kcal/mol:
TGGGACACGTGGGGAA
GGCCGCACGTGGCGGG
CTAGGCACGTGGGGAA
GTGGGCACGTGGAGGA

Relative binding free energy, -0.05 kcal/mol:
TCGGGCACGTGTGGTT
AGAGGCACGTGTGATG
TAGAGCACGTGTTAGT
GGATGCACGTGCAGTG

Relative binding free energy, 0.12 kcal/mol:
TGGGGCACGTGAAGAG
TTTATCACGTGCGGTC
ATGTACACGTGTTAGA
TTGGTCACGTGTATGG
ATTGTCACGTGTTCTA
